Out of some 46,000 compounds screened, about 60 (0.1%) were called active. Roughly 3% stayed inconclusive and do not appear here. Calls follow the shape of the dose curve; as a rule, active = well fitted inhibition curve with a large enough effect; inconclusive = small, poorly fitted or top-dose-only effect; inactive = no such curve, though single readings can be large or run the other way. The list shows a part of the results.
Test: Primary qHTS assay for Inhibitors of ovarian cancer metastasis using an organotypic tumor microenvironment (TME) model. Also: nearly all actives have a fitted effect of over 65% in size.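 As to Potency: count of GFP cancer cells still attached after washing and fixation.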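 As to activity change, negative = inhibition: plate controls were DMSO wells for no effect and tomatine positive control wells for full effect.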
Settings: SKOV3ip1-GFP adhesion/invasion on 3D omental model, fluorescence; series mostly up to 45.8 µM; activity change, negative = inhibition: at the top concentration
Procedure, shortened: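 A 3D layer of primary human omental fibroblasts, mesothelial cells, fibronectin and collagen I, grown 48 hr, received SKOV3ip1-GFP cells in serum-free medium plus compounds at 0.36-46 umol/L. After 2 hr RT and 16 hr 37 C, fixed adherent GFP cells were counted; normalized to DMSO and tomatine.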
Potency is read from the fitted curve at half-maximal effect.

| SMILES | activity change, negative = inhibition | outcome | Potency |
| --- | --- | --- | --- |
| CN(C(=O)CSc1nc2ccccc2[nH]1)c1ccc(F)cc1 | inactive: -0.465% |  |  |
| Cc1cccc(C)c1NC(=O)CN(C)S(=O)(=O)c1ccc2[nH]c3c(c2c1)CCCC3 | inactive: -12.1% |  |  |
| CC(C)COc1ccc(C(=O)N2CCC(c3nc4ccccc4s3)CC2)cc1 |  | inactive |  |
| Cc1ccc2occ(CC(=O)Nc3c(C(=O)Nc4ccc(Cl)cc4)oc4ccccc34)c2c1 | inactive: 4.59% |  |  |
| O=C(CC1N=C2c3ccccc3N=C(SCC(=O)Nc3ccccc3F)N2C1=O)NCc1ccc2c(c1)OCO2 (stereo not given) |  | inactive |  |
| CCOC(=O)c1c(NC(=O)C(C)Sc2cn(CCNC(=O)c3ccc(OC)cc3)c3ccccc23)sc2c1CCC2 (stereo not given) |  | inactive |  |
| CCCOCc1cc(CN2CCN(c3ccccc3OC)CC2)c(O)c2ncccc12 |  | inactive |  |
| COc1ccccc1NC(=O)C1=C(C)Nc2nc(SCC(=O)c3ccc(C)cc3)nn2C1c1ccc(F)cc1 (stereo not given) |  | inactive |  |
| O=C(NCc1ccc(Cl)cc1)c1cnc(N2CCOCC2)c2ccccc12 |  | inactive |  |
| Cc1ccc(CSCCNC(=O)CN(c2cccc(C)c2C)S(=O)(=O)c2ccccc2)cc1 |  | inactive |  |
| Cc1cccc(N2C(=O)N(Cc3ccc(C(C)(C)C)cc3)c3ccccc3S2(=O)=O)c1 | inactive: 0.353% |  |  |
| CCC[C@H](NC(=O)C(C#N)=Cc1cccc(Br)n1)c1ccccc1 |  |  | active: 11.8 µM |
| Cc1c(C(=O)Nc2ccc(N3C[C@@H](C)O[C@@H](C)C3)nc2)cccc1-c1ccc(OC(F)(F)F)cc1 | inactive: 27.1% |  |  |
| Cc1ccccc1CNC(=O)c1ccc(Cn2c(SCc3ccccc3)nc3cccnc32)cc1 |  | inactive |  |
| COCCCOc1ccnc(CS(=O)c2nc3ccccc3[nH]2)c1C (stereo not given) | inactive: 9.32% |  |  |
| CC1CCCN(S(=O)(=O)c2cc(C(=O)NCCc3ccccc3)n(C)c2)C1 (stereo not given) | inactive: -3.83% |  |  |
| COc1ccc(CNC(=O)c2ccc3c(c2)CCN3S(=O)(=O)c2ccccc2)cc1 | inactive: -1.77% |  |  |
| CCOc1ccc(Nc2oc(-c3ccc(COc4ccc(C)cc4)o3)nc2C#N)cc1 | inactive: -17% |  |  |
| CCn1cc(C(=O)NCc2ccccc2Cl)c(=O)c2cc(S(=O)(=O)N3CCCCCC3)ccc21 |  | inactive |  |
| CCc1ccc(C(=O)Nc2cccc(-c3nc4cc(C(C)C)ccc4o3)c2)cc1 |  | inactive |  |
| CC(=O)c1cccc(NC(=O)Nc2cc3c(cc2N2CCCC2)n(C)c(=O)n3C)c1 |  | inactive |  |
| Cc1ccc(Cl)cc1NC(=O)c1ccc2nc(CCc3ccccc3)oc2c1 | inactive: -11.8% |  |  |
| COc1ccc(CNc2nc(-c3ccco3)nn2C(=O)c2ccccc2C)cc1 | inactive: -6.37% |  |  |
| Cc1ccc(-c2nc(CNC(=O)NC3CCCCC3)c(C)o2)cc1 | inactive: -2.3% |  |  |

| SMILES | activity change, negative = inhibition | outcome | Potency |
| --- | --- | --- | --- |
| Cc1ccc(C)c(NC(=O)Cn2c(=O)n(CC(=O)NCCc3ccccc3)c(=O)c3ccccc32)c1 |  | inactive |  |
| O=C(CCCn1c(=O)[nH]c2ccsc2c1=O)N1CCN(c2ccc(Cl)cc2)CC1 | inactive: 56.9% |  |  |
| CCOC(=O)c1sc2cccc(F)c2c1S(=O)(=O)Nc1ccccc1F | inactive: -13.2% |  |  |
| O=C(CSc1nnc(-c2ccc(Cl)cc2)c(-c2ccc(Cl)cc2)n1)NC1CCCC1 | inactive: 31.4% |  |  |
| Cc1ccc(NC(=O)Cn2c(=O)cc(-c3ccccc3)c3c(C)nn(C)c32)c(Cl)c1 | inactive: 4.28% |  |  |
| O=S(=O)(c1ccccc1)c1nc(-c2ccco2)oc1SCc1ccc(F)cc1 | inactive: 3.33% |  |  |
| CCCCC(=O)Nc1ccc(C(=O)OCc2cc(=O)n3ccsc3n2)cc1 | inactive: -7.99% |  |  |
| COc1ccc(NC(=O)c2nnn(CC(=O)Nc3cc(C)cc(C)c3)c2N)c(OC)c1 |  | inactive |  |
| CCN(C(=O)c1cc(S(=O)(=O)N2CCCC2)cn1C)c1ccc(OC)cc1 | inactive: -1.83% |  |  |
| COc1ccc(Cn2c(SCc3ccc(C(=O)NCc4cccs4)cc3)nc3ccncc32)cc1 | inactive: -9.19% |  |  |
| CCOC(=O)CC(NC(=O)CCc1c(C)nc2cc(-c3ccccc3)nn2c1C)c1ccc(C)cc1 (stereo not given) | inactive: 12.9% |  |  |
| COC(=O)c1ccc(NC(=O)CSc2nc3cc4ccccc4cc3[nH]2)cc1 | inactive: 8.49% |  |  |
| CCOCCCNC(=O)Cn1nc(CC)n2c(cc3c(OC)cccc32)c1=O | inactive: -12.9% |  |  |
| O=C(Nc1cc(F)ccc1F)c1cnn2c(C(F)F)cc(-c3ccccc3)nc12 | inactive: 7.66% |  |  |
| COc1cc(OC)c(NC(=O)C(C)n2nc(-c3ccc(C)cc3)c3c(c2=O)CCCC3)cc1Cl (stereo not given) |  | inactive |  |
| N#Cc1ccccc1NC(=O)C(=O)NCC(c1cccnc1)N1CCc2ccccc21 (stereo not given) | inactive: 19.5% |  |  |
| COc1ccccc1-c1cc2nc(C)c(CCC(=O)NC3CCCCC3)c(C)n2n1 | inactive: -9.62% |  |  |
| Cc1ccc(S(=O)(=O)c2nnn3c2nc(N2CCN(c4cccc(C)c4C)CC2)c2ccccc23)cc1C | inactive: 0.479% |  |  |
| Cc1ccc(NC(=O)C2CCCN(c3ncnc4onc(C)c34)C2)cc1Cl (stereo not given) | inactive: 0.243% |  |  |
| O=C(c1ccccc1)c1ccc2nc(N3CCN(c4ccc(F)cc4)CC3)c3nncn3c2c1 | inactive: 7.22% |  |  |
| CC(=O)c1cc2c(cc1N/C(=N/S(=O)(=O)c1ccc(F)cc1)c1ccccc1)OCO2 | inactive: 2.24% |  |  |
| CCc1ccc(-c2nc(CSCC(=O)NCc3ccc(C)cc3)c(C)o2)cc1 |  | inactive |  |
| COc1ccc(CN2CCN(S(=O)(=O)c3ccc(NC(C)=O)cc3)CC2)c(OC)c1OC | inactive: -1.66% |  |  |
| O=C(NC1CCCCC1)c1ccc2c(c1)N(Cc1cccc(Cl)c1)C(=O)c1ccccc1S2=O (stereo not given) | inactive: -17.4% |  |  |

| SMILES | activity change, negative = inhibition | outcome | Potency |
| --- | --- | --- | --- |
| CCN(Cc1ccccc1)C(=O)CCS(=O)(=O)c1ccc2c(c1)CCN2C(C)=O | inactive: -7.81% |  |  |
| CCc1ccc(NC(=O)c2sc3nc(C)cc(C)c3c2NC(=O)c2ccccc2OC)cc1 |  | inactive |  |
| COc1cc(OC)c(NC(=O)CSc2cc(=O)n(C)c3ccc(Cl)cc23)cc1Cl | inactive: 39.4% |  |  |
| CCOc1ccc(CCNC(=O)Cn2c(C)c3cnn(-c4ccccc4)c(=O)c3c2C)cc1 |  | inactive |  |
| O=C(NCc1ccco1)c1ccc2c(c1)N(Cc1cccc(Cl)c1)C(=O)c1ccccc1S2=O (stereo not given) | inactive: -20.6% |  |  |
| O=C(Cn1ncc2c3ccccc3n(Cc3cccc(Cl)c3)c2c1=O)N1CCCCCC1 | inactive: 2.91% |  |  |
| Nc1ncc(S(=O)(=O)NCc2ccc(F)cc2)cn1 | inactive: 7.36% |  |  |
| Cc1ccc2[nH]c3c(=O)n(CC(=O)N4CCCC(C)C4)ncc3c2c1 (stereo not given) | inactive: 7.48% |  |  |
| CC(C)c1cccc(C(C)C)c1NS(=O)(=O)c1cccs1 |  | inactive |  |
| CC(CCCc1ccccc1)NC(=O)c1nn(-c2ccc(Cl)cc2)nc1CO (stereo not given) | inactive: -2.2% |  |  |
| Cc1ccccc1Cn1c2ccccc2c2cnn(CC(=O)NCCc3ccc(Cl)cc3)c(=O)c21 |  | inactive |  |
| CC(=O)c1cccc(Nc2nc(-c3ccccc3Cl)nc3ccccc23)c1 |  | inactive |  |
| Cc1cccc(OCCn2c(-c3ccc(Cl)cc3)nc3ccccc3c2=O)c1C |  | inactive |  |
| CCOc1ccccc1NC(=O)c1cc2c(=O)[nH]c3ccccc3c2s1 | inactive: 1.11% |  |  |
| Cc1cccc2sc(N(Cc3cccnc3)C(=O)COc3ccccc3)nc12 | inactive: 15.7% |  |  |
| COc1ccc(C(=O)CCC(=O)Nc2cc(C)ccc2C)cc1 | inactive: 0.276% |  |  |
| CCOC(=O)c1c(C)[nH]c(C)c1S(=O)(=O)NCC(=O)N1CCN(c2ccccc2F)CC1 |  | inactive |  |
| COc1ccc(-c2nc3ccccc3s2)cc1NC(C)=O | inactive: 1.58% |  |  |
| Cc1cc(C)c2c(-n3cccc3)c(C(=O)NCC(C)c3ccccc3)sc2n1 (stereo not given) | inactive: 0.239% |  |  |
| COc1ccc(CNC(=O)C2CCN(S(=O)(=O)c3ccc4c(ccn4C)c3)CC2)cc1 |  | inactive |  |
| Cn1cc(-c2cc3n(n2)CCC(=O)N3CCCC(=O)Nc2ccccc2F)c2ccccc21 |  | inactive |  |
| COc1ccc(-c2nc(S(=O)(=O)c3ccc(C)cc3)c(NCc3ccccc3)o2)cc1 | inactive: 0.796% |  |  |
| Cc1cc(C)c2c(=O)c3c(oc2c1)C(=O)N(Cc1ccco1)C3c1ccccc1F (stereo not given) | inactive: 3.98% |  |  |
| CCc1c(C)c(C#N)c2nc3ccccc3n2c1Nc1cccc(C(F)(F)F)c1 | inactive: -6.69% |  |  |

| SMILES | activity change, negative = inhibition | outcome | Potency |
| --- | --- | --- | --- |
| CC(C)c1ccc(NC(=O)Cn2c(=O)oc3cc(S(=O)(=O)N4CCCC4)ccc32)cc1 | inactive: 33.6% |  |  |
| CCc1ccc(NC(=O)c2ccc(F)c(S(=O)(=O)N3CCN(c4cc(C)ccc4C)CC3)c2)cc1 | inactive: -3.12% |  |  |
| COc1ccc(Nc2nc(-c3ccccc3F)nc3ccccc23)cc1OC |  | inactive |  |
| O=C(NCCCN1CCN(c2ccc(F)cc2)CC1)c1ccc2nc(CCc3ccccc3)oc2c1 | inactive: -0.279% |  |  |
| Cc1noc(-c2ccc(-c3noc(-c4ccc(C(F)(F)F)cc4)n3)cc2)n1 | inactive: 5.37% |  |  |
| COc1ccc(NC(=O)c2sc3nc4c(cc3c2N)CN(Cc2ccccc2)CC4)cc1OC |  | inactive |  |
| Cc1c(C(=O)NCc2ccccc2Br)oc2ccc3c(c12)C(=O)CC(C)(C)O3 | inactive: 9.49% |  |  |
| CCc1cccc(NC(=O)C(CC)n2nc(C)c3sc4ccccc4c3c2=O)c1 (stereo not given) | inactive: -4.29% |  |  |
| Cc1ccc(C)c(S(=O)(=O)c2nnn3c2nc(N2CCCCC2)c2sccc23)c1 | inactive: 4.19% |  |  |
| CC(C)(C)OC(=O)N1CCC(c2c(C(=O)N3CCN(c4ncccn4)CC3)cnn2-c2cccc(F)c2)CC1 | inactive: -2.69% |  |  |
| COc1ccc(NC(=O)CCc2nnc3n(CC(C)C)c(=O)c4ccccc4n23)cc1OC | inactive: -7.31% |  |  |
| CN(C)CCNC(=O)Cn1nc(N2CCN(c3ccccc3)CC2)ccc1=O | inactive: -3.7% |  |  |
| CCOc1ccc(CC(=O)NCc2ccc3c(c2)CCN3C(C)=O)cc1OCC |  | inactive |  |
| COc1cc2c(cc1OC)n(CC(=O)c1ccc(C)cc1)c(=O)n1nc(CCn3nc(C)cc3C)nc21 | inactive: -8.9% |  |  |
| COc1ccc(NC(=O)c2ccc3c(c2)CCN3S(=O)(=O)c2ccccc2)cc1 | inactive: -9.37% |  |  |
| COc1ccc(-c2cc(C(=O)Oc3cccc(C)c3C)c3ccccc3n2)cc1 | inactive: 3.37% |  |  |
| CC(=O)Nc1nonc1-c1nnc(SCc2ccccc2Cl)n1C | inactive: 3.98% |  |  |
| COc1ccc(OC)c(NC(=O)Cn2cc(C(=O)c3ccc(Cl)cc3)c(=O)c3cc(OC)ccc32)c1 |  | inactive |  |
| Cc1ccc(O)c(NC(=O)COCc2cc(-c3ccco3)on2)c1 | inactive: -8.82% |  |  |
| COc1cccc(CNC(=O)CCNS(=O)(=O)c2ccc3c(c2)CCCC(=O)N3)c1 |  | inactive |  |
| COc1cccc(CNC(=O)CSc2n[nH]c(-c3ccccc3Cl)n2)c1 | inactive: -12.6% |  |  |
| Cc1ccc(C)c(Cn2cnc3ccccc3c2=O)c1 |  | inactive |  |
| COc1ccc(OC)c(CCNC(=O)CN2C(=O)COc3ccc(S(=O)(=O)N4CCCCCC4)cc32)c1 |  | inactive |  |

Reference: PubChem BioAssay AID1963576 (National Center for Advancing Translational Sciences (NCATS), 2024)
